# Among all 210,000 compounds or so, about 730 (0.35%) were called active. Inconclusive results, whose numbers are uncertain, are shown with a selection of clear calls. The call rests on the fitted dose curve; in most records, active means well fitted inhibition curve with a large enough effect; inconclusive means small, poorly fitted or top-dose-only effect; inactive means no such curve, though single readings can be large or run the other way. Potencies beside an inconclusive call are fits to weak or partial responses and may not hold up.
# Assay: qHTS Assay for Identifying the Cell-Membrane Permeable IMPase Inhibitors: Potentiation with Lithium; further: nearly all actives have a fitted effect of over 50% in size
# Conditions: CHO-M1 cells, IP1 TR-FRET (IP-One), carbachol + lithium; series mostly up to 59.4 µM
# Summary of the method: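 CHO cells stably expressing M1 receptor (2000/well) were cultured 16–30 h, then exposed to compounds with a small lithium addition for 30 min at 37C. IP1 was measured by TR-FRET competition; AC50 from Hill fits.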
# Potency means the concentration at half of the fitted maximal effect.
row,Structure (SMILES),Potency
1,COC(=O)c1ccc(S(=O)(=O)NCCSc2nnc3c4ccccc4n(C)c3n2)cc1,"inconclusive: 28.2 µM [inhibitor, single point]"
2,COCCNS(=O)(=O)c1ccc(OCC(=O)OC)c(Cl)c1,inactive
3,Cc1sc2ncnc(Sc3nnnn3-c3ccc(Cl)cc3)c2c1C,"inconclusive: 28.2 µM [inhibitor, single point]"
4,COC(=O)c1c(NC(=S)Nc2cc(OC)c(Cl)cc2OC)sc2c1CCCCC2,inactive
5,COc1ccc(C(=O)NC(=O)COC(=O)c2ccc3ncsc3c2)cc1,"inconclusive: 28.2 µM [inhibitor, single point]"
6,COc1ccc(N2CCN(C3=CC(=O)N(c4cccc(Cl)c4)C3=O)CC2)cc1,"inconclusive: 1.78 µM [inhibitor, full curve]"
7,Cn1c(=S)[nH]c2scc(-c3cccs3)c2c1=O,"inconclusive: 3.16 µM [inhibitor, partial curve]"
8,CCOc1ccc(/C(O)=C2/C(=O)C(=O)N(CCCn3ccnc3)C2c2cccs2)cc1Cl (configuration not stated),"inconclusive: 28.2 µM [inhibitor, single point]"
9,COc1ccc(-c2cc(=O)c3ccccc3o2)cc1,"inconclusive: 28.2 µM [inhibitor, single point]"
10,CCNc1ncc2nc(-c3ccc(OC)cc3)c(=O)n(C[C@H]3CCCO3)c2n1,"inconclusive: 25.1 µM [inhibitor, single point]"
11,COC(=O)c1sc(-c2ccccc2)cc1NC(=O)c1ccc(F)cc1,"inconclusive: 28.2 µM [inhibitor, single point]"
12,CCOC(=O)Cn1c(=NC(=O)CSC(C)=O)sc2cc(OC)ccc21,"inconclusive: 28.2 µM [inhibitor, single point]"
13,Nc1nc(CSc2nnnn2-c2ccc(Cl)cc2)nc(N2CCOCC2)n1,"inconclusive: 28.2 µM [inhibitor, single point]"
14,Cc1cc(C)cc(C(=O)Nc2ccc(N3CCCC3)cc2)c1,inactive
15,CCCCCn1nnc2c(=O)oc3ccccc3c21,inactive
16,Cc1cc2ccccn2c1C(=O)Nc1ccc(Cl)cc1,"inconclusive: 11.2 µM [inhibitor, single point]"
17,O=c1[nH]c2cc3c(cc2cc1CN(CC1CCCO1)S(=O)(=O)c1ccc(Cl)cc1)OCCO3 (configuration not stated),inactive
18,CCOc1ccc(/C(O)=C2/C(=O)C(=O)N(c3cc(C)on3)C2c2ccc(C(=O)OC)cc2)cc1 (configuration not stated),"inconclusive: 10 µM [inhibitor, partial curve]"
19,COc1ccc(-n2cc(-c3ccc(Br)cc3)[nH]c2=S)cc1,active: 11.2 µM
20,Cc1ccccc1C(=O)NC(=S)NCc1cccnc1,inactive
21,N#Cc1cc(Sc2ccccn2)c(Sc2ccccn2)cc1C#N,"inconclusive: 28.2 µM [inhibitor, single point]"
22,Oc1c(Cl)cc(CN(Cc2cc(Cl)c(O)c(Cl)c2)C2CCCCC2)cc1Cl,inactive
23,CCCCC[C@H](O)/C=C/C=C\C/C=C\CCCCC(=O)O,inactive
24,Cc1ccc(OC/C(O)=C(\C#N)c2nc3ccccc3s2)cc1,inactive

row,Structure (SMILES),Potency
1,CCC(=O)c1cc2c(cc1NC(=O)c1ccccc1)OCCO2,"inconclusive: 28.2 µM [inhibitor, single point]"
2,Cc1ccccc1NC(=O)CSc1nc2c(c(-c3ccco3)c1C#N)CCCC2,"inconclusive: 10 µM [inhibitor, partial curve]"
3,CC1Cc2cc(/C(O)=C3/C(=O)C(=O)N(CCCn4ccnc4)C3c3ccncc3)ccc2O1 (configuration not stated),"inconclusive: 10 µM [inhibitor, single point]"
4,Cc1cc(-c2nnc(SCC(=O)c3ccc4c(c3)OCCO4)o2)no1,"inconclusive: 28.2 µM [inhibitor, single point]"
5,O=C(c1ccco1)N1CCC2(CCN(Cc3ccncc3)CC2)CC1,inactive
6,O=C1COc2ccc(C(=O)CSc3nnnn3-c3ccccc3)cc2N1,inactive
7,COc1ccc(C(=O)Nc2nc(-c3ccccc3)c(C(C)=O)s2)c(OC)c1,"inconclusive: 12.6 µM [inhibitor, single point]"
8,Cc1ccc(-n2ccc(=O)c(-c3ccnc(SCc4cccc(Cl)c4)n3)n2)cc1,"inconclusive: 28.2 µM [inhibitor, single point]"
9,Cc1ccc(F)cc1NC(=O)c1ccc2c(c1)OCO2,"inconclusive: 20 µM [inhibitor, single point]"
10,O=C(O)COc1ccc(-c2nccc(-c3cccs3)n2)cc1,active: 10 µM
11,O=C(O)c1cccnc1SCc1cn2cc(Br)ccc2n1,"inconclusive: 10 µM [inhibitor, single point]"
12,COc1ccccc1OCCC(=O)OCC(=O)Nc1cc(S(=O)(=O)N(C)C)ccc1Cl,inactive
13,Cc1ccc2oc(-c3cccc(NC(=O)c4cc(-n5cnnc5)ccc4Cl)c3)nc2c1,"inconclusive: 22.4 µM [inhibitor, single point]"
14,COc1ccc(C)cc1-n1nnnc1SCc1nc2ccccc2c(=O)[nH]1,"inconclusive: 12.6 µM [inhibitor, single point]"
15,CC1CCCC(NC(=O)COC(=O)c2ccccc2NC(=O)c2ccco2)C1C (configuration not stated),"inconclusive: 28.2 µM [inhibitor, single point]"
16,COc1ccccc1CNC(=O)COC(=O)CCC(=O)c1cccs1,inactive
17,CC(C)CC(N=Cc1c(O)c2ccccc2oc1=O)C(=O)O (configuration not stated),inactive
18,COc1ccccc1N(CC(=O)NCC1CCCO1)C(=O)Cn1nnc(-c2cccs2)n1 (configuration not stated),"inconclusive: 28.2 µM [inhibitor, single point]"
19,COc1ccc(C2CC(c3cccs3)=NN2c2ccc(C=O)cc2)cc1 (configuration not stated),"inconclusive: 12.6 µM [inhibitor, single point]"
20,COC(=O)c1ccc(COc2ccc3c4c(c(=O)oc3c2)CCC4)o1,"inconclusive: 12.6 µM [inhibitor, single point]"
21,CN(C)c1ccc(C(=O)c2ccc(N(C)C)c3ccccc23)cc1,inactive
22,CC1=NNC(=O)/C1=C\c1cn(-c2ccccc2)nc1-c1ccc(F)cc1,inactive
23,c1csc(-c2nnc(-c3ccc(N4CCOCC4)cc3)o2)c1,"inconclusive: 11.2 µM [inhibitor, partial curve]"
24,COc1ccc(-c2cc(C(F)(F)F)nc(SCCC(=O)NCc3ccccc3)n2)cc1,"inconclusive: 28.2 µM [inhibitor, single point]"

row,Structure (SMILES),Potency
1,CCCCN(CC)CCNC(=O)CNC(=O)Cn1ccc2ccccc2c1=O,"inconclusive: 2.82 µM [inhibitor, single point]"
2,Cc1ccc(-c2cc(C(=O)NCc3ccco3)c3ccccc3n2)o1,"inconclusive: 14.1 µM [inhibitor, partial curve]"
3,CCOC(=O)c1sc(NC(=O)c2ccc(OC)cc2)nc1C,"inconclusive: 28.2 µM [inhibitor, single point]"
4,CCCCCN1CC(O)=C(c2nc(-c3ccc(Cl)cc3)cs2)C1=N,"inconclusive: 12.6 µM [inhibitor, single point]"
5,CC1CCN(S(=O)(=O)c2ccc(Cl)cc2)CC1,"inconclusive: 28.2 µM [inhibitor, single point]"
6,CCCNC(=O)Cn1c(=O)/c(=C\c2ccc(-c3cccc([N+](=O)[O-])c3)o2)s/c1=C\C(=O)C(C)(C)C,"inconclusive: 31.6 µM [inhibitor, single point]"
7,CCn1c(SCC(=O)N2CCN(c3ccccc3)CC2)nnc1-c1ccncc1,inactive
8,CCc1cc(C(=O)NNC(=O)CCl)sc1C,inactive
9,O=C(CN1C(=O)C2C3CCC(C3)C2C1=O)NCc1ccco1 (configuration not stated),inactive
10,CC(C)Sc1nc(-c2cccs2)nc2c1c(=O)n(C)c(=O)n2C,"inconclusive: 14.1 µM [inhibitor, single point]"
11,CCOC(=O)c1[nH]c2c(c1-c1ccccc1)C(=O)CC(c1ccc(Cl)cc1)C2 (configuration not stated),"inconclusive: 3.16 µM [inhibitor, full curve]"
12,CC1(C)C(=O)Nc2ccccc2N1C(=O)COC(=O)c1cc(S(=O)(=O)N2CCOCC2)ccc1F,inactive
13,O=[N+]([O-])c1ccc(C(=S)N2CCCC2)cc1,inactive
14,COc1cccc(CC(=O)Nc2nc3ccccc3[nH]2)c1,"inconclusive: 25.1 µM [inhibitor, partial curve]"
15,CCOC(=O)C1=C(C)c2ccccc2N(C(=O)OC)C1(C)C(=O)OCC (configuration not stated),inactive
16,CCn1c(C)cc(=S)c2ccccc21,"inconclusive: 28.2 µM [inhibitor, single point]"
17,CN(C)C=Nc1ccc2nn(-c3ccccc3)nc2c1,active: 12.6 µM
18,CCCNC(=O)NC(=O)COc1ccc2oc3ccccc3c2c1,"inconclusive: 28.2 µM [inhibitor, single point]"
19,C=CCn1c(=O)c2ccc(C(=O)NCc3ccccc3)cc2n(Cc2ccc(C)cc2)c1=O,"inconclusive: 22.4 µM [inhibitor, single point]"
20,N#Cc1ccccc1OCC(=O)Nc1c(C(=O)C2CC2)oc2ccccc12,"inconclusive: 8.91 µM [inhibitor, partial curve]"
21,CCc1nnc(NC(=O)CSc2nc3cc4c(cc3cc2C)OCCO4)s1,"inconclusive: 22.4 µM [inhibitor, single point]"
22,Cc1ccc(C)c(Nc2nc3c(S(=O)(=O)c4ccccc4)nnn3c3ccccc23)c1,"inconclusive: 5.62 µM [inhibitor, partial curve]"
23,Oc1ccc(C=Nc2cccc3ncccc23)c(O)c1,inactive
24,CC(=O)NC(=S)Nc1cccc2c(C)cc(C)nc12,"inconclusive: 28.2 µM [inhibitor, single point]"
